In publication PMC3625234, “The L-Cysteine Desulfurase NFS1 Is Localized in the Cytosol where it Provides the Sulfur for Molybdenum Cofactor Biosynthesis in Humans” (PLoS ONE, 2013):

Molecular target: T1, MOCS3 purified after expression in Sf9 cells (human, UniProt O95396 1-460)
T1 construct: MOCS3, human; no tag is named here; also called pMMC30; source: Sf9 cells, purified
T1 sequence (looked up): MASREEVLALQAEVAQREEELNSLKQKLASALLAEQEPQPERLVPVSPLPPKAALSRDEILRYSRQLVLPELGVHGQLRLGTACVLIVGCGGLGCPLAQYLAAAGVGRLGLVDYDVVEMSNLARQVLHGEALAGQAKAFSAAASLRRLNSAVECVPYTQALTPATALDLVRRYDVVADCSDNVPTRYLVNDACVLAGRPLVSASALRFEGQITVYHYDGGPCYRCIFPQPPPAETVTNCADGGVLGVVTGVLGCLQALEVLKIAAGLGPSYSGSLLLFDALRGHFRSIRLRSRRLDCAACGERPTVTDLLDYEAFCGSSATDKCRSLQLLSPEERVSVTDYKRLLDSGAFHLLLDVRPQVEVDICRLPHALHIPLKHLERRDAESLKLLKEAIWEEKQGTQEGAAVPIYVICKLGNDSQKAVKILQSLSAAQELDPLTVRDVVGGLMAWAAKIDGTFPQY
Test: SPR; Biacore T200, CM5 chip, target immobilized by amine coupling (400–600 RU), 25°C, 30 µL/min, 20 mM phosphate, 150 mM NaCl, 0.005% Tween 20, pH 7.4; analytes 0.31–10 µM; global fit, 1:1 binding, mean of 3 measurements
Details: both partners purified

B1: NFS1Δ[…] (purified) (domain or fragment)
chain: not shown
notes: L-cysteine desulfurase NFS1, human, without […]; also called His6-NFS1Δ[…]; pZM2; source: E. coli BL21(DE3), purified; co-expressed with ISD11 in E. coli for the complex
A Kd of 28.3 nM was found for B1 in this work.
